Results taken from PubChem BioAssay AID1159614 (National Center for Advancing Translational Sciences (NCATS), 2016).
The whole screen tested about 45,000 compounds, of which about 65 (0.1%) were called active. The call rests on the fitted dose curve; in most records, active means well fitted activation curve with a large enough effect; inconclusive means small, poorly fitted or top-dose-only effect; inactive means no such curve, though single readings can be large or run the other way. The list shows a part of the results.

target: Galactocerebrosidase (Homo sapiens) (UniProt P54803); test: A Novel Cell-Based Assay to Identify Small Molecules for B -Galactocerebrosidase; conditions: 145M-Twi-hGALC-G270D cells (Twitcher mouse brain line with human GALC G270D), HMU-beta-Gal fluorescence, 48 h; series mostly up to 57.5 µM; activation: at the top concentration; further: 0% is about no effect; nearly all actives have a fitted effect of over 65% in size
Method in brief: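 Mutant human GALC (G270D), stably expressed in a Twitcher mouse brain cell line lacking endogenous GALC, is measured in live-treated cells via 6-hexadecanoylamino-4-methylumbelliferyl-β-galactoside hydrolysis (0.1 mM final, pH 5.2) with fluorescent detection.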

Chain of UniProt P54803 (P54803 whole entry, looked up): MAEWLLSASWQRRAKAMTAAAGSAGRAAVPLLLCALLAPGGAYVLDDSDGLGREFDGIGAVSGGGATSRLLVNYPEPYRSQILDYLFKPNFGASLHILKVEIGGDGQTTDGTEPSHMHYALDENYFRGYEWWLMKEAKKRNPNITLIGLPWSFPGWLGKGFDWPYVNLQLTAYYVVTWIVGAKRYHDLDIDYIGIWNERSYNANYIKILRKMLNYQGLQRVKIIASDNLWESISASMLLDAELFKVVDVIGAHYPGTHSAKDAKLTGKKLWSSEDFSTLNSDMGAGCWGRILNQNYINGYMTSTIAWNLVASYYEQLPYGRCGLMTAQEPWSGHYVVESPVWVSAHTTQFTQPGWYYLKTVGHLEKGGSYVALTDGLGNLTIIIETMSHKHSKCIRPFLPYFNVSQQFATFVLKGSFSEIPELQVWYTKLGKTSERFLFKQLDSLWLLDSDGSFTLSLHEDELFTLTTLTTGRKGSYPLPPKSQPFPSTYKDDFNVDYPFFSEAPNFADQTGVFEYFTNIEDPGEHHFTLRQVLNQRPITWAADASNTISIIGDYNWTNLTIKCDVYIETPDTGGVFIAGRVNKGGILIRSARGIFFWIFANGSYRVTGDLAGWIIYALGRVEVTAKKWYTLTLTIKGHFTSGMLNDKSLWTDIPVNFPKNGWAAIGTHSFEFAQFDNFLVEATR

| Compound | activation | Potency |
| --- | --- | --- |
| Cc1ccc(Cl)cc1N1CCN(C(=O)c2cnn(C)c2C2CCN(C(=O)OC(C)(C)C)CC2)CC1 | inactive: -2.22% |  |
| Cc1ccc(-c2nnc(Nc3ccccc3O)c3ccccc23)cc1 | inactive: -18.1% |  |
| Cc1ccc2sc(-c3ccc(N)cc3)nc2c1 | inactive: -17.4% |  |
| O=C(Nc1ccc2nc(SCC(=O)N3CCc4ccccc43)sc2c1)c1ccccc1 | inactive: -0.549% |  |
| CCNC(=O)NCc1cccc(Cl)c1 | inactive: -18.4% |  |
| CCc1ccc(-n2c(=O)c3sc4ccccc4c3n(CC(=O)N(CC)Cc3ccccc3)c2=O)cc1 | inactive: -7.11% |  |
| CCC(=O)N1CCc2cc(CNC(=O)c3ccccc3C)ccc21 | inactive: -14.3% |  |
| CCCCNC(=O)CSc1nc2nc(C)c(Cc3c(F)cccc3Cl)c(C)n2n1 | inactive: -7.93% |  |
| CCOC(=O)c1c(C)[nH]c(C)c1S(=O)(=O)N1CCCC(C(=O)Nc2cc(C)ccc2C)C1 (stereo unspecified) | inactive: -8.04% |  |
| CCc1cc(C(=O)Nc2c(C)nn(Cc3ccccc3Cl)c2C)no1 | inactive: -22.7% |  |
| CC(=O)O[C@]1(C(C)=O)CC[C@H]2[C@@H]3C=C(C)C4=CC(=O)CC[C@]4(C)[C@H]3CC[C@@]21C | inactive: -9.29% |  |
| O=C(CCC(=O)N1CC2CCCN2c2ccccc21)NCc1ccc(F)cc1 (stereo unspecified) | inactive: -5.86% |  |
| Cc1cc(C)c(NC(=O)CN2C(=O)c3cccnc3Sc3ccccc32)c(C)c1 | inactive: -4.72% |  |
| COc1cc(OC)c(NC(=O)N2CCc3c([nH]c4ccccc34)C2c2ccccc2F)cc1Cl (stereo unspecified) | inactive: -14.1% |  |
| O=C(Nc1ccccc1F)c1ccc(Cn2nc(N3CCN(c4ccccc4)CC3)ccc2=O)o1 | inactive: -14.1% |  |
| COc1cc(OC)c(N(C)C(=O)c2c(C)oc3ncnc(N4CCCCC4)c23)cc1Cl | inactive: -10.9% |  |
| CCOc1ccc(CCNC(=O)c2nnc(Cc3ccc(Cl)cc3Cl)o2)cc1OCC | inactive: -1.91% |  |
| COc1ccc(C(=O)NCC(c2ccc3c(c2)OCO3)N2CCN(C)CC2)cc1 (stereo unspecified) | inactive: -8.87% |  |
| O=S(=O)(c1ccc(F)cc1)N(CC(O)Cn1c2ccccc2c2ccccc21)c1ccccc1 (stereo unspecified) | inactive: -10.7% |  |
| COc1ccc(NC(C)=O)cc1NC(=O)C1(c2cccs2)CCOCC1 | inactive: -19.2% |  |
| CCn1cc(/C=C(\NC(=O)c2ccc(C)cc2)C(=O)NCCCn2ccnc2)c2ccccc21 | inactive: -10.2% |  |

| Compound | activation | Potency |
| --- | --- | --- |
| CCOC(=O)c1cc2c(=O)n3ccccc3nc2n(CC2CCCO2)c1=NC(=O)c1ccccc1C (stereo unspecified) | inactive: -17% |  |
| Cc1ccc2c(=O)cc(C(=O)NCc3ccccc3)oc2c1 | inactive: -6.88% |  |
| COc1ccc(CNC(=O)C2CCCN(S(=O)(=O)c3ccc4c(ccn4C)c3)C2)c(OC)c1 (stereo unspecified) | inactive: -4.57% |  |
| CCOc1ccc2nc(N3CCN(C(=O)c4ccco4)CC3)sc2c1 | inactive: -12.8% |  |
| COc1cccc(C(=O)N2CCCCC2CCN2CCCCC2)c1 (stereo unspecified) | inactive: -9.6% |  |
| O=C(CSc1nc2c([nH]c3ccccc32)c(=O)n1-c1ccc(F)cc1)N1CCc2ccccc21 | inactive: 17.6% |  |
| CCc1ccc(-n2nc(CO)c(C(=O)NCCc3ccccc3)n2)cc1 | inactive: -5.79% |  |
| Cc1ccc(C)c(N2CCN(C(=O)Cc3c(C(=O)O)c(C)cn3C)CC2)c1 | inactive: -7% |  |
| Cc1cc(C)cc(-n2c(SCC(=O)N3CCC(C)CC3)nc3c([nH]c4ccccc43)c2=O)c1 | inactive: 1.21% |  |
| COc1ccc(OC)c(NC(=O)c2cccc3c2C(=O)N(C2CCCCC2)C3)c1 | inactive: -6.08% |  |
| Cc1cccc(Cn2c(CNS(=O)(=O)c3ccc(C(C)C)cc3)nc3cccnc32)c1 | inactive: -8.66% |  |
| CC/C=C(\C(=O)N[C@@H]1C(=O)N2C(C(=O)OCOC(=O)C(C)(C)C)=C(COC(N)=O)CS[C@H]12)c1csc(N)n1 |  | inactive |
| Cc1oc(-c2ccccc2F)nc1CS(=O)CC(=O)NC(C)C (stereo unspecified) | inactive: -16.5% |  |
| COc1cc(NC(=O)CN2CCN(S(=O)(=O)c3ccc(Br)cc3)CC2)cc(OC)c1 | inactive: -2.55% |  |
| Cc1ccc(Nc2cc(C(=O)NCCc3ccccc3)c3ccccc3n2)c(C)c1 | inactive: -14.3% |  |
| COc1ccc(NC(=O)CSc2nc(-c3cc(OC)c(OC)c(OC)c3)[nH]c2-c2ccc(F)cc2)cc1 | inactive: 0.473% |  |
| O=C(CSc1nc(-c2ccccc2)cn1-c1ccccc1F)Nc1ccc(F)cc1 | inactive: -14.6% |  |
| COc1ccc(CNS(=O)(=O)c2cc3c(cc2Cl)N(C(C)=O)CCO3)cc1 | inactive: -6.92% |  |
| CC1CCN(C(c2ccccc2)c2sc3nc(-c4ccco4)nn3c2O)CC1 (stereo unspecified) | inactive: -21.4% |  |
| COc1ccc(CNC(=O)C2CCN(c3nnc(-n4c(C)ccc4C)s3)CC2)c(OC)c1 | inactive: -0.774% |  |
| Cc1ccccc1Cn1c(COc2ccc(Cl)cc2)nc2ccccc21 | inactive: -12% |  |

| Compound | activation | Potency |
| --- | --- | --- |
| Cc1nc2ccc(S(=O)(=O)N(C)CC(=O)Nc3ccc(C(C)C)cc3)cc2s1 | inactive: -15.8% |  |
| O=C(Nc1cccc(F)c1)C1CCCN(S(=O)(=O)c2cccc3cccnc23)C1 (stereo unspecified) | inactive: -9.98% |  |
| O=C(Cn1nc(-c2ccc(Cl)cc2)c2ccccc2c1=O)Nc1cccc(Br)c1 | inactive: 1.71% |  |
| CCCOC(=O)c1cccc(NC(=O)c2c(-c3ccccc3Cl)noc2C)c1 | inactive: -0.584% |  |
| CCCCC(=O)Nc1c(C(=O)N2CCN(c3ccccc3F)CC2)oc2ccccc12 | inactive: -20.6% |  |
| COc1ccc(NC(=O)CN2CCN(CC(=O)Nc3ccccc3F)CC2)c(OC)c1 | inactive: -14.1% |  |
| Cc1ccc(-n2ncc(C(=O)NCCN3CCc4ccccc4C3)c2C2CCN(C(=O)OC(C)(C)C)CC2)cc1C | inactive: -35.8% |  |
| O=c1c2cc3c(cc2nc2sc(Nc4ccccc4)nn12)OCO3 | inactive: -5.62% |  |
| CC1CCN(S(=O)(=O)c2ccc3c(c2)c(=O)c(C(=O)N2CCN(c4cccc(Cl)c4)CC2)cn3C)CC1 | inactive: -11.6% |  |
| CCOC(=O)c1c(C)oc2nc(C)nc(NCCc3ccc(OCC)c(OCC)c3)c12 | inactive: -12% |  |
| COc1ccc(N2CCN(c3ncnc4c3cnn4-c3ccc(F)cc3)CC2)cc1 | inactive: -9.1% |  |
| COC(=O)c1ccc(NC(=O)CSc2cn(CC(=O)N3CCCCC3)c3ccccc23)cc1 | inactive: -11.9% |  |
| COc1ccc(-c2nc(SCC(=O)NC(C)CCc3ccccc3)n[nH]2)cc1 (stereo unspecified) | inactive: 2.36% |  |
| COc1ccc(S(=O)(=O)c2c(Nc3cccc(C)c3C)sc(C(=O)c3ccccc3)c2N)cc1 | inactive: -25.6% |  |
| Cc1cccc(C)c1NC(=O)CN1CCN(CCCC(c2ccc(F)cc2)c2ccc(F)cc2)CC1 | inactive: -15.9% |  |
| CCN(c1ccccc1)S(=O)(=O)c1nnc(NC(=O)c2ccccc2OC)s1 | inactive: -9.18% |  |
| CCOCCc1nn2c(=O)cc(COC(=O)c3ccc(NC(=O)C4CCCCC4)cc3)nc2s1 | inactive: -1.15% |  |
| COc1cc(C)c(Cc2cnc(N)nc2N)cc1OC | inactive: -16.8% |  |
| CCCN(C(=O)c1cn(C)c(=O)c2cc(OC)c(OC)cc12)c1ccc(CC)cc1 | inactive: -7.19% |  |
